Here are results for 54 molecules from PubChem BioAssay AID463173 (ICCB-Longwood Screening Facility, Harvard Medical School, 2010).

Molecules are shown by their SMILES. The campaign covered roughly 52,000 compounds. About 1,700 (3.3%) were called active. Rule as the data show it: active = survival mostly below about 52% (no sharp cut-off); inactive = mostly above about 56%. The list shows a part of the results.

The assay relates to Wild type. Briefly: S. aureus survival, RN4220 and DeltatarO strains – OD600, teichoic acid synthesis inhibitors, primary screen (AID 463173). The note with it: S. aureus RN4220 wild type/DeltatarO growth, OD600, 18 h, hits give low values, screened at 18.75 µg/mL (by protocol).
As for `CCOC(=O)Cc1ccc(NC(=O)N(C(C)C)C2CCN(C(C)=O)CC2)cc1`, the survival is inactive: 85%.

With `COC(=O)c1sccc1S(=O)(=O)N1CCN(c2ccc(C(C)=O)cc2)CC1`, the survival is inactive: 111%.

For `COc1ccc(Cl)cc1NC(=O)Cn1nnc(C(=O)NCc2ccc3c(c2)OCO3)c1N`, the survival was inactive: 81%. In the case of `Cc1ccc(-c2cc(C(=O)Nc3c(C(=O)c4ccc(C)c(F)c4)oc4ccccc34)no2)cc1` it was inactive: 93%; in that of `CCOCCc1nn2c(=O)cc(COC(=O)c3cccc(C)c3)nc2s1`, active: -6%; in that of `Cc1ccc(C)c(N2CCN(C(=O)C3CCCN(S(=O)(=O)c4cccc5nonc45)C3)CC2)c1` (centres undefined), inactive: 77%. In the case of `CCOC(=O)c1c(NC(=O)CSc2cn(CCNC(=O)c3c(F)cccc3F)c3ccccc23)sc2c1CCCC2`, the survival is inactive: 69%. In the case of `Cc1ccc(Cn2c(CN3CCC(C(=O)NCC(C)c4ccccc4)CC3)cc3ccccc32)cc1` (centres undefined) it was inactive: 132%; in that of `CC(=O)c1ccc(NC(=O)c2cc(C3CC3)nc3c2c(C)nn3-c2ccc(C)cc2)cc1`, inactive: 64%.

Regarding `COc1ccc(S(=O)(=O)NCCc2sc(-c3ccccc3)nc2C)cc1F`, the survival was inactive: 72%. Then `Cc1ccc(Cl)cc1N1CCN(S(=O)(=O)c2ccc(-c3cnc(C4CC4)o3)cc2)CC1`, with inactive: 68%; and `Cc1nnc(Nc2ccc(C(=O)O)cc2)[nH]c1=O`, with inactive: 113%; and `O=C(Cn1cc(S(=O)(=O)N2CCN(c3ccccc3F)CC2)c2ccccc2c1=O)Nc1ccc(F)cc1Cl`, with inactive: 129%. Then `COc1cc2c(C(=O)N3CCN(c4cc(Cl)ccc4C)CC3)cn(CC(C)C)c(=O)c2cc1OC`, with inactive: 73%. In the case of `CC(C)c1ccc(NC(=O)c2ccc(F)c(S(=O)(=O)N3CCN(c4ccccc4F)CC3)c2)cc1` it was inactive: 111%; in that of `O=C(Nc1ccccc1F)C(Cc1ccccc1)N1Cc2ccccc2C1=O` (centres undefined), inactive: 75%; in that of `CC(C)c1ccc(NC(=O)CN2C(=O)CCc3cc(S(=O)(=O)N4CCOCC4)ccc32)cc1`, inactive: 68%.

Regarding `Cc1ccc(C(C(=O)NC2CCCC2)N(C(=O)Cn2nnc3ccccc32)c2cnc3ccccc3c2)o1` (centres undefined), the survival was inactive: 117%. On to `COc1ccc(C(=O)N2CCN(C(=O)COc3ccc(C)cc3)CC2)cc1OC`, for which the survival was inactive: 77%.

With `COc1ccc(NC(=O)CN2CCN(c3ccccc3F)CC2)c(OC)c1`, the survival was inactive: 69%. As for `CN(C(=O)CSc1nnc2c3ccccc3n(C)c2n1)C1CCCCC1`, the survival was inactive: 95%. On to `CCCOc1ccc(-c2cccc(NS(=O)(=O)c3ccc(CC)cc3)c2)nn1`, for which the survival was inactive: 69%. In the case of `CCCSCCCNC(=O)CN1C(=O)CCn2nc(-c3cn(C)c4ccccc34)cc21` it was inactive: 98%; in that of `CCOC(=O)c1ccc2nc(C)c(CC)c(Cl)c2c1`, inactive: 105%. Turning to `CCC(C)NC(=O)CCC(=O)NNc1nc2ccccc2c2nc(C)nn12` (centres undefined), the survival is inactive: 134%. As for `CCC1=C(c2ccc(C)cc2)S(=O)(=O)N=C1N1CCC(C(=O)NCc2ccc(C)cc2)CC1`, the survival was inactive: 81%.

For `Cc1ccc(C(=O)/C=C/c2cn(CC(O)CN3CCCCCC3)c3ccccc23)cc1` (centres undefined), the survival is active: 28%. In the case of `Cc1ccc(NC(=O)CSc2nccn2Cc2ccc3c(c2)OCO3)c(C)c1` it was inactive: 91%; in that of `Cc1cc(C)c(NC(=O)CN(C)S(=O)(=O)c2ccc3c(c2)c(=O)n(C)c(=O)n3C)c(C)c1`, inactive: 82%.

In the case of `Cc1ccc(-c2nn3c(=O)cc(CN4CCN(C(=O)c5ccc(C(C)(C)C)cc5)CC4)nc3s2)cc1`, the survival was inactive: 80%. In the case of `CCc1ccc(S(=O)(=O)n2ccnc2)cc1` it was inactive: 66%; in that of `COCCn1c(=NC(=O)c2ccc3c(c2)OCCO3)sc2cc(NC(C)=O)ccc21`, inactive: 71%; in that of `O=C(Nc1ccc(F)cc1F)N1CCc2c(sc3c2CCCC3)C1c1ccc(F)cc1` (centres undefined), inactive: 74%. As for `COc1cc(NS(=O)(=O)c2ccc(NC(=O)c3ccc(OC)c(Br)c3)cc2)nc(OC)n1`, the survival was inactive: 88%.

`Cc1onc(-c2ccccc2)c1C(=O)N1CCOCC1`: the survival is inactive: 115%. As for `CCc1cccc(NC(=O)C(Cc2ccccc2)NS(=O)(=O)c2ccc3c(c2)c(=O)n(C)c(=O)n3C)c1` (centres undefined), the survival is inactive: 68%. Take `COc1ccc(-c2nc3sc(CCNS(=O)(=O)c4c(C)cc(C)cc4C)c(C)n3n2)cc1`: the survival was active: -3%. Consider `COc1cc(Cl)c(C)cc1Nc1nnc(-n2nc(C)cc2C)c2ccccc12`, for which the survival was inactive: 153%.

Consider `Cc1cc(SCC(=O)Nc2nsc(-c3ccc(C(C)(C)C)cc3)n2)nc2ccccc12`, for which the survival was active: 7%. For the molecule `COc1cccc(N2CCN(C(=O)c3c4c(nc5ccccc35)C(=O)N(C3CCCCC3)C4)CC2)c1`, the survival was inactive: 88%. In the case of `CN(C)CCSc1nnc(-c2ccccc2)o1`, the survival was inactive: 103%. In the case of `COc1ccccc1OCC(=O)N/N=C1/SCC(=O)N1Cc1ccccc1` it was inactive: 106%; in that of `COc1ccc(OCc2nc(C#N)c(NCc3ccccc3Cl)o2)cc1`, inactive: 44%. In the case of `COc1cccc(NC(=O)C2CCCN2S(=O)(=O)c2ccc3nc(-c4ccccc4)[nH]c3c2)c1` (centres undefined) it was inactive: 57%; in that of `COc1ccccc1N1CCN(S(=O)(=O)c2ccc(-n3cnnn3)cc2)CC1`, inactive: 93%; in that of `CCOC(=O)N1CCc2c(sc3c2c(=O)n(-c2ccc(CC)cc2)c(=O)n3Cc2cccc(OC)c2)C1`, inactive: 80%. For the molecule `CC(=O)Nc1cccc(NC(=O)Cc2csc(COc3cccc(C)c3)n2)c1`, the survival is inactive: 90%. On to `COc1ccc(NS(=O)(=O)c2ccc3c(c2)NC(=O)CCS3)c(OC)c1`, for which the survival was inactive: 64%. Then `CCOc1ccc(C2c3c(oc4cc(C)c(C)cc4c3=O)C(=O)N2c2ccccn2)cc1` (centres undefined), with inactive: 70%; and `CCC(C(=O)Nc1cc(C)ccc1OC)n1nnc(C(=O)OC)c1C(=O)OC` (centres undefined), with inactive: 89%. For `CCc1ccc(S(=O)(=O)N(C(C)=O)c2ccc3oc4c(c3c2)CCCC4)cc1`, the survival is inactive: 105%. Then `CCOc1ccc(C(=O)Nc2ccc3c(c2)N(C(C)=O)CCC3)cc1OCC`, with inactive: 97%; and `Cc1ccc(-n2nc3c(N4CCC(C(=O)N(C)Cc5ccccc5)CC4)nnc(C)c3c2C)cc1`, with inactive: 97%; and `Cc1ccc(C)c(S(=O)(=O)n2nc(C)c(S(=O)(=O)N3CCC(C)CC3)c2C)c1`, with inactive: 51%.
